The values that follow come from paper PMC6212790.

The list shows a part of the results. At the low end of the ranking the order means little.

In this assay the target is T1, GST-Rok-C97-191 (UniProt O34857).
T1 sequence: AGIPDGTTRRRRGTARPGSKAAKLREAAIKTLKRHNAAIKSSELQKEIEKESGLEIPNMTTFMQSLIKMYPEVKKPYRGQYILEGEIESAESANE
As to the kind of experiment: protein binding microarray.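 Also: rank score from −0.5 (least bound) to 0.5 (best bound).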 The settings on record: Rok is a gene silencer of Bacillus subtilis; high values mean tight binding; most listed sequences are background and not binding sites; double strand, one strand shown.
Take GTTATATA: the binding signal came out at 0.31 E-score. The result for ACGGCCGT reads -0.0467 E-score. For ACGGTCAT, the binding signal is -0.00187 E-score. As for CATGCCAA, the binding signal was -0.12 E-score. The result for AGCTCATG reads -0.059 E-score; that for GGTACACA, 0.0356 E-score; that for AAACGTAG, 0.109 E-score. For the sequence AGCAGTTC, the binding signal is -0.0114 E-score.

The sequence ACGGCTGC returned a binding signal of 0.0759 E-score.

As to ATATAGGA, the binding signal amounted to 0.185 E-score.

TAGTCAAA yielded a binding signal of 0.158 E-score. The result for CGGACGTC reads 0.0407 E-score; that for CGGGAGAC, -0.189 E-score; that for GCAAACTA, 0.385 E-score. As for GCGCCAGC, the binding signal is -0.0952 E-score. With CACGTTGA the figure was 0.0325 E-score; with AGGGGGGA, -0.24 E-score; with ACACGGGG, -0.055 E-score.

Sequence TGAACTAA displayed a binding signal of 0.0629 E-score.

As to GGAGATCA, the binding signal is -0.0617 E-score. The result for CCTGATGA reads -0.17 E-score. With CTGTTGGC, the binding signal was -0.158 E-score. In the case of ACAGCATC, the binding signal is -0.0826 E-score. On to GGATACGA, for which the binding signal amounted to 0.0298 E-score. With GAGAAGAC the figure was -0.0353 E-score. As for AGGCTATC, the binding signal was -0.0801 E-score.

Take AGCCTAGG: the binding signal is -0.261 E-score. CCTGCGGA: the binding signal was -0.211 E-score. With AAGGGCTG the figure was -0.344 E-score; with ATCCGGAC, -0.0292 E-score; with TAGAGGAA, 0.0474 E-score. Sequence AACCGCAG gave a binding signal of 0.125 E-score. With CATGTTGA the figure was -0.00675 E-score; with CCAATGAG, -0.226 E-score; with CTAAACCC, -0.17 E-score.

For the sequence ACCTTATC, the binding signal was 0.0618 E-score.

For CGTCTTCA, the binding signal was -0.0943 E-score. The result for GTTCCGCA reads -0.0716 E-score; that for ATCCTGCG, -0.171 E-score.

CCCCAATA: the binding signal was -0.162 E-score.

AGTTAGGC: the binding signal is -0.0909 E-score. With TAAAGCCA the figure was 0.0799 E-score; with AAGCCTGA, -0.0501 E-score; with ATATACTC, 0.293 E-score. With ACCAATCG the figure was -0.0341 E-score.

With AACACGCA, the binding signal is -0.0481 E-score. As for CTGTTGAC, the binding signal was -0.136 E-score. As to AGTGTACC, the binding signal was found to be 0.0716 E-score. Consider ATCCTCCG, for which the binding signal is -0.361 E-score.

For GGCCGGCA, the binding signal is -0.245 E-score. Sequence TGAAAGCA returned a binding signal of 0.0344 E-score. With ACCGTGTG the figure was -0.164 E-score; with ATTACTCG, 0.198 E-score. With GTAGCGAA the figure was 0.0931 E-score; with GAACGCGA, -0.0129 E-score. Turning to GACCCGTC, the binding signal was -0.321 E-score. On to CGCGCACG, for which the binding signal was -0.144 E-score. The result for ACTTCGGG reads -0.163 E-score; that for ACAAACTG, 0.0787 E-score. On to CGACTGAG, for which the binding signal is -0.0342 E-score. With CGGACCCG the figure was -0.0626 E-score. For AAGACGCC, the binding signal is -0.207 E-score.

With CGTCGGGA, the binding signal was -0.107 E-score. The result for CGGGAGGA reads -0.219 E-score; that for CCATACTA, 0.228 E-score. With ATACTGGA the figure was 0.0235 E-score; with CTTCTGGC, -0.127 E-score.

With GTCGACAA, the binding signal was -0.173 E-score. With CGAAGGGA the figure was -0.0696 E-score; with ACGTCTAT, -0.0106 E-score. With TAACATCA the figure was 0.188 E-score; with GGAACCAC, -0.338 E-score; with AGGGGCGG, -0.287 E-score.

In the case of GTGGTTTA, the binding signal was determined as 0.132 E-score.

CCGGGGAC: the binding signal was -0.225 E-score. Turning to CCCGGCAA, the binding signal is -0.113 E-score. With AAACACCC the figure was 0.177 E-score. For the sequence GTCACACA, the binding signal was found to be 0.0123 E-score. AATCAACT came in with a binding signal of 0.161 E-score.

In the case of AGCAATGG, the binding signal was -0.177 E-score. On to CAACCGCC, for which the binding signal is -0.352 E-score. In the case of CGACACTC, the binding signal is 0.0223 E-score.

As for AGCCTGCC, the binding signal is -0.321 E-score. The result for AATAGCAT reads 0.116 E-score; that for ACACTTAC, 0.026 E-score. With ATTGTAAA the figure was 0.156 E-score; with TACACTAA, 0.14 E-score; with ATTTTTGA, 0.109 E-score. The result for ACCAAGGT reads -0.0936 E-score. The sequence GTAATGAC returned a binding signal of 0.11 E-score. AGTACAAA registered a binding signal of 0.342 E-score.

Take ACAGCGAA: the binding signal was 0.0315 E-score. With ACAAGGGT the figure was -0.107 E-score; with ATTAGGAG, 0.00201 E-score.

Take AGAACAGA: the binding signal is 0.058 E-score.

As for ACGGGTTA, the binding signal was -0.0652 E-score. Sequence AAATGCTG yielded a binding signal of 0.0644 E-score. TAGGTGCA came in with a binding signal of 0.118 E-score. On to CGGCAGGA, for which the binding signal is -0.161 E-score.

In the case of CCCGAATA, the binding signal was -0.14 E-score. With AGGCCTCC the figure was -0.274 E-score. With CAGATACA the figure was 0.146 E-score; with GGCTATCA, -0.0497 E-score. For AACGGCCG, the binding signal was -0.0184 E-score. On to AGTCAGGG, for which the binding signal is -0.305 E-score. As for CGCATCAG, the binding signal is -0.0753 E-score.

CTAAGTAG returned a binding signal of 0.275 E-score. In the case of AGCACTGC, the binding signal is -0.158 E-score. For the sequence AACTGCCC, the binding signal was -0.0946 E-score.

Take TAAGGGCA: the binding signal is 0.00129 E-score. Sequence AATCGAGT had a binding signal of 0.0307 E-score. As to AACGCGGG, the binding signal is -0.179 E-score. Sequence ACTCTCGA showed a binding signal of 0.0551 E-score. ACAACTCT displayed a binding signal of 0.128 E-score. The result for TAACGTCA reads 0.0342 E-score.

As for CGATACGA, the binding signal is 0.069 E-score. The result for ACCCGTGC reads -0.276 E-score.

CCAGAGAA registered a binding signal of 0.0844 E-score. The result for CTCAGGGC reads -0.348 E-score.

Regarding GCCTTCCA, the binding signal was -0.211 E-score. The result for AAGCATGC reads 0.00997 E-score; that for CCGCTAGG, -0.135 E-score. With CAGGGTTA the figure was -0.042 E-score; with GTGCTTTA, -0.0835 E-score; with ACTGCAAG, -0.0595 E-score. With AGCCACGC the figure was -0.169 E-score; with CACATTGA, -0.0361 E-score; with ACCAGAAG, 0.0767 E-score. Take CCCTGTAG: the binding signal was -0.0563 E-score. With CCCGACCA the figure was -0.229 E-score; with TAAACACA, 0.213 E-score; with CGGCGAAG, 0.0966 E-score.

As for TAGCTGCA, the binding signal is -0.091 E-score.

CATTCGCC: the binding signal is -0.0525 E-score. For CGAGGAGA, the binding signal is -0.179 E-score. The result for ATGACCTG reads -0.0486 E-score; that for CAGTCATC, -0.135 E-score. The result for ATCGGAGA reads 0.178 E-score; that for AACATGCG, 0.00488 E-score. The result for CATCACTA reads 0.0773 E-score; that for GTTTCGGA, -0.0924 E-score; that for AGCTACTG, 0.233 E-score. For GTAAAACA, the binding signal amounted to 0.175 E-score. With CATACGTA the figure was 0.173 E-score; with CCCACGAA, -0.287 E-score; with TATTATCA, 0.169 E-score. With AGCGAGGA the figure was -0.251 E-score. With AGATGCGG the figure was -0.225 E-score. For the sequence GCCGGGGA, the binding signal is -0.195 E-score. The result for CAAACGCC reads -0.166 E-score; that for AAGTTGGC, 0.135 E-score. With CCCTGACA the figure was -0.218 E-score. The result for TAAATGAA reads 0.0281 E-score; that for TAGAGACA, 0.191 E-score; that for CTCGGCAA, -0.188 E-score. As to AGTCAAGA, the binding signal is -0.0899 E-score. Take CGCGTCAG: the binding signal is -0.282 E-score.

Sequence ATAGTCTG yielded a binding signal of 0.297 E-score. Take AGCGCCCT: the binding signal is -0.304 E-score.

Turning to CATCCGTA, the binding signal is 0.0643 E-score. The result for CCAAGACA reads -0.143 E-score. The result for ATCGTGCG reads 0.00105 E-score; that for CGCCCTGA, -0.325 E-score; that for CCGACTTC, -0.203 E-score. In the case of GATGTCCA, the binding signal was -0.238 E-score. Regarding CATATCAC, the binding signal amounted to 0.0327 E-score. With AATTACCA the figure was 0.33 E-score; with GGCCAGCA, -0.0966 E-score. The result for CTGTACCA reads -0.0649 E-score; that for AGAAGGCT, -0.232 E-score; that for AAAAAATT, 0.0765 E-score. Consider TCAGAGAA, for which the binding signal is -0.108 E-score.
